From PubChem BioAssay AID504466 (National Center for Advancing Translational Sciences (NCATS), 2011)
Screen size: about 330,000 compounds; about 4,200 (1.3%) were called active. Inconclusive means that the source gave no clear call. Such entries were picked first, then a sample of the others. Calls come from the whole dose curve; as a rule, active = well fitted activation curve with a large enough effect; inconclusive = small, poorly fitted or top-dose-only effect; inactive = no such curve, though single readings can be large or run the other way. Potencies beside an inconclusive call are fits to weak or partial responses and may not hold up.

Experiment: qHTS screen for small molecules that induce genotoxicity in human embryonic kidney (HEK293T) cells expressing luciferase-tagged ELG1; note: nearly all actives have a fitted effect of over 60% in size
Conditions: HEK293T ELG1-luciferase reporter, luminescence, 16 h; series mostly up to 46 µM
Procedure, shortened: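 16 hr compound incubation (37 °C, 5% CO2) of HEK293T cells carrying luciferase-tagged ELG1; luciferase then measured by ONE-Glo luminescence after 30 min at RT.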
Potency is the fitted concentration of half-maximal effect; tags give direction and shape of the fitted curve.

**Q.** Which Potency does the source give for `O=C(c1ccc(F)cc1)c1cc2ccccc2o1` here?
**A.** Its Potency is inconclusive: 8.2 µM [activator, single point].

**Q.** Which Potency does the source give for `COc1ccc(NC(=O)/C=C/c2ccc3c(c2)OCO3)cc1` here?
**A.** The Potency was inconclusive: 3.26 µM [activator, full curve, poor fit].

**Q.** Which Potency does the source give for `COCC1CCCN(C(=O)c2ccc3nc(Cc4cccc(Cl)c4)oc3c2)C1` (stereo not drawn) here?
**A.** Its Potency is inconclusive: 16.4 µM [activator, partial curve, poor fit].

**Q.** Which Potency does the source give for `O=C(Nc1nc2ccc(Cl)cc2s1)c1ccc(N2CCCCC2)c([N+](=O)[O-])c1` here?
**A.** Its Potency is inconclusive: 18.4 µM [activator, partial curve, poor fit].

**Q.** With `C#CCOc1ccc2c3c(c(=O)oc2c1)CCCC3` as the compound, how does the Potency read?
**A.** The Potency was inconclusive: 25.9 µM [activator, partial curve, poor fit].

**Q.** For `CC1CC1C(=O)OCC(=O)Nc1ccc(N=Nc2ccccc2)cc1` (stereo not drawn), which Potency is on record?
**A.** The Potency was active: 16.4 µM.

**Q.** Which Potency does the source give for `CNC(=O)COC(=O)c1ccc2c(c1)NC(=O)C1CCCN21` (stereo not drawn) here?
**A.** The Potency was “inactive”.

**Q.** With `O=C(c1ccc(F)cc1)c1cc2ccc(O)cc2oc1=O` as the compound, how does the Potency read?
**A.** The Potency was inconclusive: 18.3 µM [activator, partial curve, poor fit].

**Q.** For `Cc1ccc(NC(=O)Nc2c(Cl)cccc2Cl)cn1`, which Potency is on record?
**A.** The Potency was “inactive”.

**Q.** For `CN(C)c1ccc(-n2cc3c(=O)n(C)c(=O)n(C)c3c2)cc1`, which Potency is on record?
**A.** The Potency was inconclusive: 23.1 µM [activator, partial curve, poor fit].

**Q.** With `CCn1c(=O)n(CC)c2cc(N3CCCC3)c(NC(=O)c3ccccc3F)cc21` as the compound, how does the Potency read?
**A.** The Potency was “inactive”.

**Q.** With `COc1ccc(/C=N/NC(=O)CCc2c(C)n[nH]c2C)cc1O` as the compound, how does the Potency read?
**A.** The Potency was “inactive”.

**Q.** With `CC(=O)Nc1sc(C)c(C)c1C(=O)OCCOc1ccccc1` as the compound, how does the Potency read?
**A.** Its Potency is inconclusive: 3.66 µM [activator, full curve].

**Q.** For `Cc1c(C(=O)Nc2ccc(F)cc2)cn2c(nc3ccccc32)c1C#N`, which Potency is on record?
**A.** The Potency was inconclusive: 32.6 µM [activator, partial curve, poor fit].

**Q.** Which Potency does the source give for `Cc1ccc(NC(=O)CCOc2ccccc2)cc1` here?
**A.** Its Potency is inconclusive: 20.6 µM [activator, partial curve].

**Q.** Which Potency does the source give for `CCNc1nc(Sc2ccc(C)cc2)cc(C(F)(F)F)n1` here?
**A.** Its Potency is “inactive”.

**Q.** For `C/C(=N\NC(=O)c1cc2c(s1)CCC(C)C2)c1ccc[nH]1` (stereo not drawn), which Potency is on record?
**A.** The Potency was inconclusive: 4.11 µM [activator, partial curve].

**Q.** For `O=C(Nc1nc2c(s1)CCCC2)c1cccnc1`, which Potency is on record?
**A.** Its Potency is active: 2.06 µM.

**Q.** For `CC(=O)N1CCN(c2ccccc2NC(=O)COc2ccc(Cl)cc2Cl)CC1`, which Potency is on record?
**A.** Its Potency is “inactive”.

**Q.** For `COc1ccc(-c2nnc(N(C)C(=O)c3cccnc3)s2)cc1`, which Potency is on record?
**A.** Its Potency is inconclusive: 11.6 µM [activator, partial curve, poor fit].

**Q.** With `O=C(Nc1ccc2c(c1)OCO2)c1ccc(Br)o1` as the compound, how does the Potency read?
**A.** The Potency was active: 18.4 µM.

**Q.** With `C/C(=N\Nc1ccc([N+](=O)[O-])cc1)c1ccco1` as the compound, how does the Potency read?
**A.** Its Potency is inconclusive: 18.4 µM [activator, partial curve].

**Q.** With `CN1CCN(C2=NC(=O)/C(=C/c3ccccc3OS(=O)(=O)c3ccccc3)S2)CC1` as the compound, how does the Potency read?
**A.** The Potency was “inactive”.

**Q.** With `CC(C)(C)OC(=O)C[C@H]1C/C=C\C[C@H](CC(=O)NCCO)C(=O)N2CCC[C@@H]2COC1=O` as the compound, how does the Potency read?
**A.** The Potency was “inactive”.

**Q.** For `Cn1c(N)c(C(=O)COc2ccc(C#N)cc2)c(=O)n(C)c1=O`, which Potency is on record?
**A.** The Potency was “inactive”.

**Q.** Which Potency does the source give for `CCCOc1cccc(-c2cc(C(=O)N/N=C/c3ccccn3)c3ccccc3n2)c1` here?
**A.** Its Potency is inconclusive: 29.1 µM [activator, single point].

**Q.** For `O=C(O)CN1C(=O)/C(=C\C(Br)=C\c2ccccc2)SC1=S`, which Potency is on record?
**A.** Its Potency is inconclusive: 29.1 µM [activator, single point].

**Q.** With `COc1ccc(C(=O)NCCc2nnc(SCC(=O)Nc3ccccc3)n2C)cc1` as the compound, how does the Potency read?
**A.** Its Potency is inconclusive: 18.4 µM [activator, partial curve, poor fit].

**Q.** With `CC(C)C(=O)N1CCN(c2nc3ccc(Cl)cc3s2)CC1` as the compound, how does the Potency read?
**A.** The Potency was inconclusive: 18.3 µM [activator, partial curve, poor fit].

**Q.** Which Potency does the source give for `CCSc1nc2ccccc2n1C(=O)/C=C\c1ccc(OC)c(OC)c1` here?
**A.** Its Potency is inconclusive: 4.11 µM [activator, partial curve, poor fit].

**Q.** Which Potency does the source give for `CCSc1nnc(NC(=O)c2ccccn2)s1` here?
**A.** Its Potency is active: 16.4 µM.

**Q.** Which Potency does the source give for `O=C(COc1ccc(Cl)cc1)Nc1ncc([N+](=O)[O-])s1` here?
**A.** The Potency was inconclusive: 1.16 µM [activator, partial curve, poor fit].

**Q.** Which Potency does the source give for `Cc1ccc(C(=O)c2cc3ccccc3o2)cc1` here?
**A.** Its Potency is inconclusive: 7.31 µM [activator, partial curve].

**Q.** Which Potency does the source give for `O=C(NC(=S)Nc1ccc(Cl)cn1)c1cccs1` here?
**A.** The Potency was inconclusive: 5.17 µM [activator, partial curve, poor fit].

**Q.** Which Potency does the source give for `Oc1ccc(-c2csc(Nc3ncccn3)n2)cc1O` here?
**A.** The Potency was inconclusive: 5.17 µM [activator, single point].

**Q.** For `Cc1ccc(C(c2cc(Br)ccc2O)N2CCSCC2)cc1` (stereo not drawn), which Potency is on record?
**A.** Its Potency is “inactive”.

**Q.** For `CCCCNCCCCOc1ccccc1`, which Potency is on record?
**A.** Its Potency is inconclusive: 18.4 µM [activator, partial curve, poor fit].

**Q.** With `C=CCn1c(SCC(=O)N(C)c2c(N)n(Cc3ccccc3)c(=O)[nH]c2=O)nnc1-c1ccccc1OC` as the compound, how does the Potency read?
**A.** Its Potency is “inactive”.

**Q.** Which Potency does the source give for `CCCCn1c(N)c(N(CCOC)C(=O)c2ccco2)c(=O)[nH]c1=O` here?
**A.** Its Potency is “inactive”.

**Q.** Which Potency does the source give for `CN(Cc1ccccc1)c1nc2c(c(=O)[nH]c(=O)n2C)n1C` here?
**A.** Its Potency is “inactive”.

**Q.** For `CCn1c(SCc2nc3ccccc3s2)nnc1-c1cccs1`, which Potency is on record?
**A.** The Potency was inconclusive: 13 µM [activator, partial curve, poor fit].

**Q.** For `Cc1ccc(Cl)cc1NC(=O)COC(=O)c1ccc(COc2ccc3c(C)cc(=O)oc3c2)cc1`, which Potency is on record?
**A.** The Potency was inconclusive: 23.1 µM [activator, partial curve, poor fit].

**Q.** For `Cc1c(/C=C/C(=O)c2ccc(O)cc2)cnn1C`, which Potency is on record?
**A.** The Potency was active: 20.6 µM.

**Q.** For `CC1=NNC(=O)C1CC(=O)N/N=C(\C)c1cccs1` (stereo not drawn), which Potency is on record?
**A.** The Potency was “inactive”.

**Q.** For `CN(C)c1ccc(N=Cc2cccn2C)cc1`, which Potency is on record?
**A.** Its Potency is active: 14.6 µM.

**Q.** For `Cc1cc(C(=O)NCCc2ccc(Cl)cc2)c(C)o1`, which Potency is on record?
**A.** Its Potency is active: 18.3 µM.

**Q.** Which Potency does the source give for `Cc1ccc(Nc2nc(N)nc(CSc3ncccn3)n2)cc1` here?
**A.** The Potency was inconclusive: 4.11 µM [activator, single point].

**Q.** Which Potency does the source give for `CCN1C(=O)c2cccc3c(NC(=O)c4ccc(S(=O)(=O)N5CCOCC5)cc4)ccc1c23` here?
**A.** The Potency was inconclusive: 20.6 µM [activator, partial curve, poor fit].

**Q.** For `CC(C)C[C@@H](CSc1ccc(Br)cc1)N1CCN(CC(C)C)CCC1=O`, which Potency is on record?
**A.** Its Potency is “inactive”.

**Q.** With `COc1cc(NC(=O)c2cc(-c3cccnc3)nc3ccc(Br)cc23)cc(OC)c1` as the compound, how does the Potency read?
**A.** The Potency was “inactive”.

**Q.** Which Potency does the source give for `COC(=O)CNC(=O)c1cccc(Cl)c1` here?
**A.** The Potency was “inactive”.

**Q.** With `Cc1ccc(N=C/C(C(=O)C(F)(F)F)=C(\O)c2ccco2)cc1Cl` as the compound, how does the Potency read?
**A.** The Potency was inconclusive: 5.8 µM [activator, single point].

**Q.** With `CSc1ccc(/C=N/N2CCN(c3ccccc3)CC2)cc1` as the compound, how does the Potency read?
**A.** The Potency was “inactive”.

**Q.** For `Cc1ccc(-c2nn3c(C)nnc3c3ccccc23)cc1S(=O)(=O)N1CCN(CCO)CC1`, which Potency is on record?
**A.** Its Potency is inconclusive: 29.1 µM [activator, partial curve, poor fit].

**Q.** For `Cc1ccnc(NC(=O)c2ccc(Cl)s2)c1`, which Potency is on record?
**A.** Its Potency is inconclusive: 2.31 µM [activator, full curve].

**Q.** Which Potency does the source give for `Cc1nc(CCNS(=O)(=O)c2cccnc2)cs1` here?
**A.** The Potency was “inactive”.

**Q.** With `CCCCCOc1ccc(Cn2ccnc2)cc1[N+](=O)[O-]` as the compound, how does the Potency read?
**A.** Its Potency is inconclusive: 20.6 µM [activator, partial curve, poor fit].

**Q.** Which Potency does the source give for `Cc1ccc(-c2nnc(SCC(=O)N3CCCC3)o2)cc1` here?
**A.** The Potency was inconclusive: 14.1 µM [activator, partial curve, poor fit].

**Q.** Which Potency does the source give for `C=CCn1c(CNc2ccccc2)nnc1SCC(=O)N/N=C/c1ccc(O)cc1O` here?
**A.** Its Potency is “inactive”.

**Q.** For `O=c1c2c(nc3cc(-c4cccc(F)c4)[nH]n13)CCC2`, which Potency is on record?
**A.** Its Potency is inconclusive: 3.66 µM [activator, full curve].

**Q.** Which Potency does the source give for `C=CCNC(=S)Nc1c(C(=O)OC)[nH]c2cc(OC)ccc12` here?
**A.** The Potency was inconclusive: 20.6 µM [activator, partial curve, poor fit].

**Q.** Which Potency does the source give for `Cc1ccsc1/C=N\NC(=O)c1n[nH]c2c1CCC2` here?
**A.** The Potency was inconclusive: 0.58 µM [activator, full curve].

**Q.** With `COc1ccccc1C(=O)NC(=O)COC(=O)c1ccc(C)o1` as the compound, how does the Potency read?
**A.** Its Potency is “inactive”.

**Q.** Which Potency does the source give for `O=C(OCCN1CCCC1)C1(c2ccccc2)CCCC1` here?
**A.** The Potency was inconclusive: 25.9 µM [activator, partial curve, poor fit].

**Q.** With `CCOC(=O)c1ccc2nc(NC(=O)C(C)C)sc2c1` as the compound, how does the Potency read?
**A.** The Potency was inconclusive: 5.8 µM [activator, partial curve].

**Q.** For `CN(C)c1ccccc1-c1csc(N2CCC(C(N)=O)CC2)n1`, which Potency is on record?
**A.** The Potency was inconclusive: 2.59 µM [activator, partial curve].

**Q.** With `COc1ccc(Cl)cc1NC(=O)CN(C)C(=O)c1sccc1-c1ccccc1` as the compound, how does the Potency read?
**A.** Its Potency is “inactive”.

**Q.** Which Potency does the source give for `COc1ccc(Nc2c(-c3ccco3)nc3ccc(C)cn23)cc1` here?
**A.** The Potency was inconclusive: 0.73 µM [activator, full curve, poor fit].

**Q.** Which Potency does the source give for `Cc1ccc(S(=O)(=O)Nc2ccc3c(c2)n(C)c(=O)n3C)cc1` here?
**A.** Its Potency is inconclusive: 3.66 µM [activator, single point].

**Q.** With `Clc1cccc(/C=N/N2CCN(Cc3ccccc3)CC2)c1` as the compound, how does the Potency read?
**A.** The Potency was inconclusive: 23.1 µM [activator, partial curve, poor fit].

**Q.** Which Potency does the source give for `C/C(=N\O)c1ccc(N2C(=O)C3CC=C(Cl)CC3C2=O)cc1` (stereo not drawn) here?
**A.** The Potency was inconclusive: 20.6 µM [activator, partial curve].

**Q.** Which Potency does the source give for `O=C(O)CN1C(=O)/C(=C\c2cccc(OCc3ccccc3F)c2)SC1=S` here?
**A.** The Potency was “inactive”.

**Q.** Which Potency does the source give for `Cc1oc(-c2cccc(Cl)c2)nc1CN1CCC(C(=O)NCCCN2CC(C)CC(C)C2)CC1` (stereo not drawn) here?
**A.** Its Potency is inconclusive: 29.1 µM [activator, partial curve, poor fit].
